Target: Recombinant heterodimeric HCV NS3/NS4A protease (strain 1a) (Hepatitis C virus genotype 1a, UniProt P27958)
Test: Spectrophotometric assay for HCV protease inhibitory activity (chromogenic ester substrates)
Assay type: biochemical
From the text: The present invention relates to novel HCV protease inhibitors. This utility can be manifested in their ability to inhibit the HCV NS2/NS4a serine protease.
Assay for HCV Protease Inhibitory Activity:
Spectrophotometric Assay: Spectrophotometric assay for the HCV serine protease can be performed on the inventive compounds by following the procedure described by R. Zhang et al, Analytical Biochemistry, 270 (1999) 268-275, the disclosure of which is incorporated herein by reference. The assay based on the proteolysis of chromogenic ester substrates is suitable for the continuous monitoring of HCV NS3 protease activity. The substrates are derived from the P side of the NS5A-NS5B junction sequence (Ac-DTEDVVX(Nva), where X=A or P) whose C-terminal carboxyl groups are esterified with one of four different chromophoric alcohols (3- or 4-nitrophenol, 7-hydroxy-4-methyl-coumarin, or 4-phenylazophenol). Illustrated below are the synthesis, characterization and application of these novel spectrophotometric ester substrates to high throughput screening and detailed kinetic evaluation of HCV NS3 protease inhibitors.
Protein concentrations are determined by the Biorad dye method using recombinant HCV protease standards previously quantified by amino acid analysis. Prior to assay initiation, the enzyme storage buffer (50 mM sodium phosphate pH 8.0, 300 mM NaCl, 10% glycerol, 0.05% lauryl maltoside and 10 mM DTT) is exchanged for the assay buffer (25 mM MOPS pH 6.5, 300 mM NaCl, 10% glycerol, 0.05% lauryl maltoside, 5 μM EDTA and 5 μM DTT) utilizing a Biorad Bio-Spin P-6 prepacked column.
Protease Assay: HCV protease assays are performed at 30° C. using a 200 μl reaction mix in a 96-well microtiter plate. Assay buffer conditions (25 mM MOPS pH 6.5, 300 mM NaCl, 10% glycerol, 0.05% lauryl maltoside, 5 μM EDTA and 5 μM DTT) are optimized for the NS3/NS4A heterodimer (D. L. Sali et al, ibid.)). Typically, 150 μl mixtures of buffer, substrate and inhibitor are placed in wells (final concentration of DMSO≦4% v/v) and allowed to preincubate at 30° C. for approximately 3 minutes. Fifty μls of prewarmed protease (12 nM, 30° C.) in assay buffer, is then used to initiate the reaction (final volume 200 μl).The plates are monitored over the length of the assay (60 minutes) for change in absorbance at the appropriate wavelength (340 nm for 3-Np and HMC, 370 nm for PAP, and 400 nm for 4-Np) using a Spectromax Plus microtiter plate reader equipped with a monochrometer (acceptable results can be obtained with plate readers that utilize cutoff filters). Proteolytic cleavage of the ester linkage between the Nva and the chromophore is monitored at the appropriate wavelength against a no enzyme blank as a control for non-enzymatic hydrolysis. The evaluation of substrate kinetic parameters is performed over a 30-fold substrate concentration range (˜6-200 μM). Initial velocities are determined using linear regression and kinetic constants are obtained by fitting the data to the Michaelis-Menten equation using non-linear regression analysis (Mac Curve Fit 1.1, K. Raner). Turnover numbers (kcat) are calculated assuming the enzyme is fully active.
Evaluation of Inhibitors and Inactivators: The inhibition constants (Ki) for the competitive inhibitors Ac-D-(D-Gla)-L-I-(Cha)-C—OH (27), Ac-DTEDVVA(Nva)-OH and Ac-DTEDVVP(Nva)-OH are determined experimentally at fixed concentrations of enzyme and substrate by plotting vo/vi vs. inhibitor concentration ([I]o) according to the rearranged Michaelis-Menten equation for competitive inhibition kinetics: vo/vi=1+[I]o/(Ki(1+[S]o/Km)), where vo is the uninhibited initial velocity, vi is the initial velocity in the presence of inhibitor at any given inhibitor concentration ([I]o) and [S]o is the substrate concentration used.

Structure (SMILES)	Ki (Table 1, Ki* range class)	other results
C#CCCC(NC(=O)[C@@H]1[C@@H]2[C@H](CN1C(=O)[C@@H](NC(=O)N[C@H](COC(=O)NCC)C(C)(C)C)C1Cc3ccccc3C1)C2(C)C)C(=O)C(=O)NCC=C (some centres unmarked) [Example 1073]	< 75 nM	
CCCCC(NC(=O)[C@@H]1[C@@H]2[C@H](CN1C(=O)[C@@H](NC(=O)N[C@H](COC(=O)NC(C)C)C(C)(C)C)C1Cc3ccccc3C1)C2(C)C)C(=O)C(=O)NCC (some centres unmarked) [Example 1074]	75 to 250 nM	
C=CCNC(=O)C(=O)C(CCC)NC(=O)[C@@H]1[C@@H]2[C@H](CN1C(=O)[C@@H](NC(=O)N[C@H](COC(=O)NCC)C(C)(C)C)C(C)(C)C)C2(C)C (some centres unmarked) [Example 1075]	< 75 nM	
CCNC(=O)OC[C@@H](NC(=O)N[C@H](C(=O)N1C[C@H]2[C@@H]([C@H]1C(=O)NC(CC1CCC1)C(=O)C(N)=O)C2(C)C)C(C)(C)C)C(C)(C)C (some centres unmarked) [Example 1076]	< 75 nM	
C=CCNC(=O)C(=O)C(CC1CC1)NC(=O)[C@@H]1[C@@H]2[C@H](CN1C(=O)[C@@H](NC(=O)N[C@H](COC(=O)NC(C)C)C(C)(C)C)C1CCCC1)C2(C)C (some centres unmarked) [Example 1077]	< 75 nM	
CCNC(=O)OC[C@@H](NC(=O)N[C@H](C(=O)N1C[C@H]2[C@@H]([C@H]1C(=O)NC(CC1CC1)C(=O)C(=O)NC)C2(C)C)C1Cc2ccccc2C1)C(C)(C)C (some centres unmarked) [Example 1078]	75 to 250 nM	
C#CCCC(NC(=O)[C@@H]1[C@@H]2[C@H](CN1C(=O)[C@@H](NC(=O)N[C@H](COC(=O)NCC)C(C)(C)C)C1Cc3ccccc3C1)C2(C)C)C(=O)C(=O)NCCC (some centres unmarked) [Example 1079]	< 75 nM	
CCCC(NC(=O)[C@@H]1[C@@H]2[C@H](CN1C(=O)[C@@H](NC(=O)N[C@H](COC(=O)NCC)C(C)(C)C)C1Cc3ccccc3C1)C2(C)C)C(=O)C(N)=O (some centres unmarked) [Example 1080]	< 75 nM	
CCNC(=O)OC[C@@H](NC(=O)N[C@H](C(=O)N1C[C@H]2[C@@H]([C@H]1C(=O)NC(CC1CCC1)C(=O)C(N)=O)C2(C)C)C1CCCCC1)C(C)(C)C (some centres unmarked) [Example 1081]	< 75 nM	
CCNC(=O)OC[C@@H](NC(=O)N[C@H](C(=O)N1C[C@H]2[C@@H]([C@H]1C(=O)NC(CC1CC1)C(=O)C(N)=O)C2(C)C)C1CCCCC1)C(C)(C)C (some centres unmarked) [Example 1082]	< 75 nM	
C=CCNC(=O)C(=O)C(CCC(F)(F)F)NC(=O)[C@@H]1[C@@H]2[C@H](CN1C(=O)[C@@H](NC(=O)N[C@H](COC(=O)NCC)C(C)(C)C)C1CCCCC1)C2(C)C (some centres unmarked) [Example 1083]	< 75 nM	
C=CCNC(=O)C(=O)C(CC1CC1)NC(=O)[C@@H]1[C@@H]2[C@H](CN1C(=O)[C@@H](NC(=O)N[C@H](COC(=O)NCC)C(C)(C)C)C1CCCCC1)C2(C)C (some centres unmarked) [Example 1084]	< 75 nM	
C=CCNC(=O)C(=O)C(CCCC)NC(=O)[C@@H]1[C@@H]2[C@H](CN1C(=O)[C@@H](NC(=O)N[C@H](COC(=O)NCC)C(C)(C)C)C1CCCCC1)C2(C)C (some centres unmarked) [Example 1085]	< 75 nM	Ki (Table 6, numeric Ki*): 11 nM
C#CCCC(NC(=O)[C@@H]1[C@@H]2[C@H](CN1C(=O)[C@@H](NC(=O)N[C@H](COC(=O)NCC)C(C)(C)C)C1CCCCC1)C2(C)C)C(=O)C(=O)NCC=C (some centres unmarked) [Example 1086]	< 75 nM	Ki (Table 6, numeric Ki*): 8 nM
C=CCNC(=O)C(=O)C(CC1CC1)NC(=O)[C@@H]1[C@@H]2[C@H](CN1C(=O)[C@@H](NC(=O)N[C@H](COC(=O)NC(C)C)C(C)(C)C)C1CCCC1)C2(C)C (some centres unmarked) [Example 1087]	< 75 nM	
CCNC(=O)OC[C@@H](NC(=O)N[C@H](C(=O)N1C[C@H]2[C@@H]([C@H]1C(=O)NC(CC1CC1)C(=O)C(N)=O)C2(C)C)C1(C)CCCCC1)C(C)(C)C (some centres unmarked) [Example 1088]	< 75 nM	
C=CCNC(=O)C(=O)C(CCCC)NC(=O)[C@@H]1[C@@H]2[C@H](CN1C(=O)[C@@H](NC(=O)N[C@H](COC(=O)NCC)C(C)(C)C)C1(C)CCCCC1)C2(C)C (some centres unmarked) [Example 1089]	< 75 nM	

Structure (SMILES)	Ki (Table 1, Ki* range class)	other results
C#CCCC(NC(=O)[C@@H]1[C@@H]2[C@H](CN1C(=O)[C@@H](NC(=O)N[C@H](COC(=O)NCC)C(C)(C)C)C1(C)CCCCC1)C2(C)C)C(=O)C(=O)NCC=C (some centres unmarked) [Example 1090]	< 75 nM	Ki (Table 6, numeric Ki*): 9 nM
C#CCCC(NC(=O)[C@@H]1[C@@H]2[C@H](CN1C(=O)[C@@H](NC(=O)N[C@H](COC(=O)NCC)C(C)(C)C)C1(C)CCCCC1)C2(C)C)C(=O)C(=O)NCC (some centres unmarked) [Example 1091]	< 75 nM	
C=CCNC(=O)C(=O)C(CCC)NC(=O)[C@@H]1[C@@H]2[C@H](CN1C(=O)[C@@H](NC(=O)N[C@H](COC(=O)NCC)C(C)(C)C)C1(C)CCCCC1)C2(C)C (some centres unmarked) [Example 1092]	< 75 nM	
C#CCCC(NC(=O)[C@@H]1[C@@H]2[C@H](CN1C(=O)[C@@H](NC(=O)N[C@H](COC(=O)NCC)C(C)(C)C)C1(C)CCCCC1)C2(C)C)C(=O)C(=O)NCCC (some centres unmarked) [Example 1093]	< 75 nM	
CCCC(NC(=O)[C@@H]1[C@@H]2[C@H](CN1C(=O)[C@@H](NC(=O)N[C@H](COC(=O)NCC)C(C)(C)C)C1(C)CCCCC1)C2(C)C)C(=O)C(=O)NC1CC1 (some centres unmarked) [Example 1094]	< 75 nM	
C#CCCC(NC(=O)[C@@H]1[C@@H]2[C@H](CN1C(=O)[C@@H](NC(=O)N[C@H](COC(=O)NC(C)C)C(C)(C)C)C1(C)CCCCC1)C2(C)C)C(=O)C(=O)NCC=C (some centres unmarked) [Example 1095]	< 75 nM	Ki (Table 6, numeric Ki*): 8 nM
C=CCNC(=O)C(=O)C(CCCC)NC(=O)[C@@H]1[C@@H]2[C@H](CN1C(=O)[C@@H](NC(=O)N[C@H](COC(=O)NC(C)C)C(C)(C)C)C1(C)CCCCC1)C2(C)C (some centres unmarked) [Example 1096]	< 75 nM	
C=CCNC(=O)C(=O)C(CCC)NC(=O)[C@@H]1[C@@H]2[C@H](CN1C(=O)[C@@H](NC(=O)N[C@H](COC(=O)NC(C)C)C(C)(C)C)C1(C)CCCCC1)C2(C)C (some centres unmarked) [Example 1097]	< 75 nM	
C#CCCC(NC(=O)[C@@H]1[C@@H]2[C@H](CN1C(=O)[C@@H](NC(=O)N[C@H](COC(=O)NC(C)C)C(C)(C)C)C1(C)CCCCC1)C2(C)C)C(=O)C(=O)NCCC (some centres unmarked) [Example 1098]	< 75 nM	Ki (Table 6, numeric Ki*): 15 nM
C=CCNC(=O)C(=O)C(CCCC)NC(=O)[C@@H]1[C@@H]2[C@H](CN1C(=O)[C@@H](NC(=O)N[C@H](COC(=O)NCC)C1CCCCC1)C1CCCCC1)C2(C)C (some centres unmarked) [Example 1099]	< 75 nM	
C=CCNC(=O)C(=O)C(CCC)NC(=O)[C@@H]1[C@@H]2[C@H](CN1C(=O)[C@@H](NC(=O)N[C@H](COC(=O)NCC)C1CCCCC1)C1CCCCC1)C2(C)C (some centres unmarked) [Example 1100]	< 75 nM	
C#CCCC(NC(=O)[C@@H]1[C@@H]2[C@H](CN1C(=O)[C@@H](NC(=O)N[C@H](COC(=O)NCC)C1CCCCC1)C1CCCCC1)C2(C)C)C(=O)C(=O)NCC=C (some centres unmarked) [Example 1101]	< 75 nM	
C#CCCC(NC(=O)[C@@H]1[C@@H]2[C@H](CN1C(=O)[C@@H](NC(=O)N[C@H](COC(=O)NCC)C1CCCCC1)C1(C)CCCCC1)C2(C)C)C(=O)C(=O)NCC=C (some centres unmarked) [Example 1104]		Ki (Table 1A, Ki* range class): < 75 nM; Ki (Table 6A, numeric Ki*): 13 nM
C#CCCC(NC(=O)[C@@H]1[C@@H]2[C@H](CN1C(=O)[C@@H](NC(=O)N[C@H](COC(=O)NCC(C)C)C(C)(C)C)C1(C)CCCCC1)C2(C)C)C(=O)C(=O)NCC=C (some centres unmarked) [Example 1108]		Ki (Table 1A, Ki* range class): < 75 nM; Ki (Table 6A, numeric Ki*): 9 nM
C#CCCC(NC(=O)[C@@H]1[C@@H]2[C@H](CN1C(=O)[C@@H](NC(=O)N[C@H](COC(=O)NCC1CCCCC1)C(C)(C)C)C1(C)CCCCC1)C2(C)C)C(=O)C(=O)NCC=C (some centres unmarked) [Example 1112]		Ki (Table 1A, Ki* range class): < 75 nM; Ki (Table 6A, numeric Ki*): 20 nM
C=CCNC(=O)C(=O)C(CCC)NC(=O)[C@@H]1[C@@H]2[C@H](CN1C(=O)[C@@H](NC(=O)N[C@H](COC(=O)NCC1CC1)C(C)(C)C)C1(C)CCCCC1)C2(C)C (some centres unmarked) [Example 1114]		Ki (Table 1A, Ki* range class): < 75 nM; Ki (Table 6A, numeric Ki*): 32 nM
C#CCCC(NC(=O)[C@@H]1[C@@H]2[C@H](CN1C(=O)[C@@H](NC(=O)N[C@H](COC(=O)NCC1CC1)C(C)(C)C)C1(C)CCCCC1)C2(C)C)C(=O)C(=O)NCC=C (some centres unmarked) [Example 1115]		Ki (Table 1A, Ki* range class): < 75 nM; Ki (Table 6A, numeric Ki*): 7.4 nM
